Laboratory results published in PubChem BioAssay AID445 (National Center for Advancing Translational Sciences (NCATS), 2006).
Screen size: about 110,000 compounds; about 40 (0.04%) were called active. This list was built around the results that the source calls inconclusive (neither active nor inactive); the mix of calls is not that of the screen. Calls follow the shape of the dose curve; as a rule, active = well fitted curve in the direction sought with a large enough effect in the signal ratio (not every such curve was filed as active); inconclusive = small, poorly fitted or top-dose-only effect, or a change in a side signal; inactive = flat fitted curve, though single readings scatter; the % refers to the signal ratio.

Assay: IkB Signaling;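 also: 0% = basal untreated cells and 100% = reference inhibitor full response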
Details: ABC-DLBCL IkBa-CBG/CBR dual luciferase ratio (green luciferase fused to IkBa over red control in OCI-Ly3 lymphoma cells), 4 h; IkBa stabilization activation: at 57.1 µM (top of the series), scaled: untreated 0%, proteasome inhibitor 100% unless noted
How it was run: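 Curves were fitted separately to fusion (green), unfused (red) and ratio luminescence, then classed by r2, magnitude and activity. Cells: OCI-Ly3, 4 h compound plus doxycycline at 37C; 10 uM MG-132 defined full response.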

Structure (SMILES)	IkBa stabilization activation
COc1ccccc1Nc1nc2ccc(Cl)cc2nc1-n1nc(C)cc1C	inconclusive: 13.4% [signal inhibitor]
COc1ccc(NC(=O)c2nc3nc(C)cc(C(F)F)n3n2)c(C)c1	inactive
CCOC(=O)c1ccc(NC(=O)CC2C(=O)N(c3ccc(F)cc3)C(=O)N2Cc2ccc3c(c2)OCO3)cc1 (stereo not given)	inconclusive: -0.966% [signal inhibitor]
CCOC(=O)c1cccc(NC(=O)C2CCN(S(=O)(=O)c3cn(C)cn3)CC2)c1	inconclusive: 0.325% [signal inhibitor]
COc1cc(-c2nnc(CSc3nc4ccccc4s3)o2)cc(OC)c1OC	inconclusive: 2.68% [signal inhibitor]
CCc1ccc(NC(=O)N2CC(C)Oc3ccc(C)cc32)cc1 (stereo not given)	inconclusive: 1.74% [signal inhibitor]
CC(C)(C)OC(=O)N1CCC(c2c(C(=O)NCCN3CCC(Cc4ccccc4)CC3)cnn2-c2ccccc2)CC1	inactive
COCCCNc1ncnc2c1cnn2-c1ccc(F)cc1	inactive
COc1cc2ccccc2cc1C(=O)Nc1ccc2oc(-c3cccc(Cl)c3Cl)nc2c1	inconclusive: 7.35% [signal inhibitor]
COc1cccc(-c2cc(C(=O)Nc3ccc(C)cc3)[nH]n2)c1	inconclusive: 3.22% [signal inhibitor]
Cc1cc(C)n(-c2nc3ccccc3nc2Nc2cc(C(=O)O)ccc2C)n1	inconclusive: 13.9% [signal inhibitor]
O=C(Nc1ccc2c(c1)OCO2)C1CCN(C(=O)CSc2ncnc3ccccc23)CC1	inconclusive: 1.92% [signal inhibitor]
Cc1ccc(CN2CCN(CC(=O)NCc3ccccc3Cl)C2=O)cc1	inconclusive: 4.04% [signal inhibitor]
Cc1ccc(NC(=O)C(=O)NCC(c2cccnc2)N2CCc3ccccc32)cc1Cl (stereo not given)	inactive
COC(=O)c1cc2c(C)nn(-c3ccccc3)c2s1	inactive
O=C(Nc1ccc(F)c(Cl)c1)c1cc(S(=O)(=O)N2CCCc3ccccc32)ccc1F	inactive
Cn1c(CNc2nc3ccccc3n2C)nc2ccccc21	inactive
N#CCSc1nc2cc(C(=O)N3CCCC3)ccc2c(=O)n1Cc1ccccc1	inactive
CC1CC(C)CN(C(=O)COC(=O)c2cc3ccccc3cc2O)C1 (stereo not given)	inconclusive: 3.35% [signal inhibitor]
COc1ccc(NC(=O)c2sc3nc(C)c(C(=O)Nc4ccc(Cl)cc4)c(-c4ccc(Br)cc4)c3c2N)cc1	inconclusive: -0.659% [signal inhibitor]
COCCn1c(=O)c(-c2ccc(Cl)cc2)nc2cnc(N3CCNCC3)nc21	inactive: -3.23% [at 11.4 µM, scaled: untreated 0%, proteasome inhibitor 100%]
O=C(c1ccc2c(c1)N(Cc1ccccc1)C(=O)c1ccccc1S2(=O)=O)N1CCN(c2ccccn2)CC1	inconclusive: -0.319% [signal inhibitor]
CCOc1ccccc1CNC(=O)c1cc(-c2ccc(OC)cc2)nc2ccc(C(C)C)cc12	inactive

Structure (SMILES)	IkBa stabilization activation
c1csc(CSc2nc3ccccc3s2)c1	inactive
COC(=O)c1ccccc1NC(=O)Cn1c(=O)n(-c2ccc(Cl)cc2)c(=O)c2c(C)c(C)sc21	inconclusive: 1.08% [signal inhibitor]
Cc1ccc(NC(=O)CSc2nc3c([nH]c4ccccc43)c(=O)n2-c2ccccc2)c(C)c1	inconclusive: 3.16% [signal inhibitor]
CCN(c1ccccc1)S(=O)(=O)c1ccc(NC(=O)c2cc(=O)c3cc(C)c(C)cc3o2)cc1	inactive
Cc1ccc(N2CCN(C(=S)c3ccc(N(C)C)cc3)CC2)cc1	inconclusive: 15.4% [signal inhibitor]
COCCn1c(CN2CCN(c3ccc(OC)cc3)CC2)nc2c1c(=O)n(C)c(=O)n2C	inactive
CCOc1ccc(C(=O)Nc2ccc3nc(SCc4ccccc4)sc3c2)cc1	inconclusive: -0.205% [signal inhibitor]
Cc1cc(C)n(C(C)n2nc(C)cc2C)n1	inactive
COc1ccccc1N1CCN(C(=O)Cn2c(=O)nc(-c3ccccc3)c3cc(Cl)ccc32)CC1	inconclusive: 1.99% [signal inhibitor]
Cc1nc2c(-c3ccc(F)cc3)c(C)nn2c(C)c1CCC(=O)NCc1ccc(Cl)cc1	inconclusive: -0.761% [signal inhibitor]
COc1ccccc1N1CCN(CC(O)COc2cc(C)cc(C)c2)CC1 (stereo not given)	inconclusive: 0.362% [signal inhibitor]
COc1cccc(CNC(=O)CCCN2C(=O)CSc3c2c(C)nn3-c2ccccc2)c1	inconclusive: 1.12% [signal inhibitor]
O=c1c2ccccc2n(Cc2cccc(F)c2)c(=O)n1Cc1ccccc1Cl	inconclusive: 6.15% [signal inhibitor]
CCn1cc(C(=O)N2CCN(c3cc(C)ccc3C)CC2)c(=O)c2cc(S(=O)(=O)N(C)C3CCCCC3)ccc21	inconclusive: 0.057% [signal inhibitor]
CN(C)c1ccc(-c2nc(N(C)C)c3ccccc3n2)cc1	inactive: -8.88% [at 11.4 µM, scaled: untreated 0%, proteasome inhibitor 100%]
Cc1ccccc1Nc1c(-c2ccc(N3CCOCC3)cc2)nc2ncccn12	inactive
CN1CCN(c2ncncc2-c2ccoc2)CC1	inactive: 1.27% [at 11.4 µM, scaled: untreated 0%, proteasome inhibitor 100%]
Cc1c(CNC(C)CCc2ccccc2)c(C(=O)O)c(C)n1Cc1ccc(F)cc1Cl (stereo not given)	inconclusive: 1.52% [signal inhibitor]
O=C(c1ccccc1Cl)n1nc(-c2cccnc2)nc1NCc1ccc(F)cc1	inconclusive: -1.53% [signal inhibitor]
Cc1cccn2c(=O)c(/C=N/O)c(N3CCCCC3)nc12	inactive
CCOC(=O)c1ccc(NC(=O)CC2SCCNC2=O)cc1 (stereo not given)	inactive
CCCCOc1ccc(C(=O)N(Cc2ccc(C(C)C)cc2)C2CCS(=O)(=O)C2)cc1 (stereo not given)	inconclusive: 7.12% [signal inhibitor]
